Source: the supplement of paper PMC3334620
Whole data set: some 33,000 sequences, median “E-score (-0.5 to 0.5)” near -0.043, cut for the highest 2% near 0.37. Some of the results follow.

These sequences were tested against T1, Upc2 (UniProt Q12151) (assay: PBM E-score (8-mer binding enrichment) (E-score (-0.5 to 0.5)); higher = stronger / more preferred TF binding; most listed sequences are background and not binding sites). Conditions: protein concentration: 200 nM; construct: GST-full length.
T1 sequence: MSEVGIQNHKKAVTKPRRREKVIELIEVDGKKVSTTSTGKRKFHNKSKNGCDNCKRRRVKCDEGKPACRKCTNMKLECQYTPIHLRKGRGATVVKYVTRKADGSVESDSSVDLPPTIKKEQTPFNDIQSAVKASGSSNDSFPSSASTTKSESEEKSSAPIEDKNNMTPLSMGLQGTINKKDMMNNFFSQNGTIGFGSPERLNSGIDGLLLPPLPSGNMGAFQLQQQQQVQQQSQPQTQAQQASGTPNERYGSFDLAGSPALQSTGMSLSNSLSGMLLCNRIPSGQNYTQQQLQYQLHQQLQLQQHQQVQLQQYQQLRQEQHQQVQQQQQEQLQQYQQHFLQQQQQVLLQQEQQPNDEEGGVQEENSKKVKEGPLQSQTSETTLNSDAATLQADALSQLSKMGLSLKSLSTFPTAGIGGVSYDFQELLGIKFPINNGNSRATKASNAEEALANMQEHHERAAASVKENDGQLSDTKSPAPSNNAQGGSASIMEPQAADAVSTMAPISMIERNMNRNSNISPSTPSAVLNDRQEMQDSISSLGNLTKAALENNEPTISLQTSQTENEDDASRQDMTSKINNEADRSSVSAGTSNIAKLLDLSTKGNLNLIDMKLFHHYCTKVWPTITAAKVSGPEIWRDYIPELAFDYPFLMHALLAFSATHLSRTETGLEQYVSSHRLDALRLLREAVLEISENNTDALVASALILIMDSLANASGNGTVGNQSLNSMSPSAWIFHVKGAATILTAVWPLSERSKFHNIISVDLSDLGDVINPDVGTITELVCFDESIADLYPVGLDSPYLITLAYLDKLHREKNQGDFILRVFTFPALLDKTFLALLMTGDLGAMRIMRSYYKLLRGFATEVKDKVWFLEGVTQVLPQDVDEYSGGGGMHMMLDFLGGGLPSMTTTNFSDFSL
How it was run: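 Yeast transcription factors, full-length or as DNA-binding domains, were expressed with a GST tag using PURExpress in vitro transcription/translation. At about 100-200 nM they were applied to universal all-10-mer Agilent arrays, double-stranded by primer extension on fresh or once-stripped slides. Fluorescent anti-GST detected bound protein, and masliner normalised the scans. E-scores for ungapped eight-base words, pooled with reverse complements, came from the Universal PBM Analysis Suite.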

Sequence | PBM E-score
CGAAGAAC | 0.144
AATTAGTA | -0.0765
AGTCTCTA | -0.0101
GTGCGAGA | 0.107
CGGTCGAG | 0.111
CTCTCTCC | -0.132
TGATGAAA | -0.0735
GCAGGAAA | -0.125
ACACCTCG | 0.131
GAGGACGA | 0.0212
ATTGCACG | 0.132
CTCCCTGC | -0.256
GCTTTATA | -0.0158
GCAATAAC | -0.123
GACCGACA | 0.1
ATAGTATA | 0.212
AATAGGAC | -0.127
AATCGTAC | 0.43
CAGTCAGC | -0.0894
CTTCAAAA | -0.24
AAAATGGA | -0.017
ACTCAATA | -0.0312
GAATCGAA | -0.0172
CATGTACG | 0.409
ACGTGACA | 0.249

Sequence | PBM E-score
ACTGGACA | -0.0544
ACTACTCT | -0.042
GACCGAGC | 0.178
ACACCGAA | 0.0562
AGCGTCTA | -0.243
GTCCGTCA | -0.255
AGAAACCT | -0.174
CAGCGTTC | 0.00239
AATGTATA | 0.185
GCATGGAA | -0.142
AGGGGTCG | -0.0675
CTGCTGAA | -0.087
CTGTCGTC | 0.00126
GACCAGCC | -0.286
AGCAGCAC | -0.113
TACAACTA | -0.102
ATGAAACA | 0.102
AGAGTAAG | -0.226
CCGTGCAA | -0.0413
GGATGACC | -0.188
AACACTAT | 0.139
AGTGTCAC | -0.217
CTAGATTC | -0.153
CTAACTCA | -0.305
ATCGAACA | 0.138

Sequence | PBM E-score
CGGATGGC | -0.165
ACATTTTA | 0.187
GCGTTCGA | -0.0001
GCGCGGAC | -0.148
GTAATTTA | 0.215
CCCTGGTC | -0.227
CCCAATGC | -0.289
ACCTGAAT | -0.00113
ACCAAAGG | -0.204
CGTTTTAA | 0.327
AGACGGAA | -0.137
ACGAATTA | 0.346
TCCCTAAA | 0.0118
GAGTATAA | 0.198
AAAGTGAA | -0.0248
ATTCGGGC | -0.0661
CTACTCAC | -0.248
ACTCCACA | -0.11
AACGGTTG | 0.124
CAATCTCC | -0.331
AACCCGAC | 0.168
AAGTGACT | -0.156
CCTGGTGA | -0.186
ACAGCAGT | 0.0544
AAACTCAA | 0.0999

Sequence | PBM E-score
CGAAGCGA | 0.252
ATGTTTCC | -0.0146
CGTGGGTC | -0.244
AGAGGGAC | -0.106
GCCAGAGC | -0.287
GGCGCAAA | -0.035
AGCCCAAA | -0.0284
CCCGCCAA | 0.00973
CGGGCGGC | -0.18
AAAAGACG | 0.0464
ACAAGTTA | 0.0036
ACGTCTGC | -0.175
GAGTCGGA | -0.0556
GGTGCAAC | -0.0668
AGGACGCG | -0.154
CACGACCG | 0.00924
AGCTCGCG | 0.193
ACGCCGAG | 0.148
CGGTTCGA | 0.181
AGAGCCGG | -0.155
TAAGGAAA | -0.0821
ATTGTTAC | 0.136
CAGTAGAG | 0.0142
CTGGCAAG | -0.237
AGCTTATG | -0.1

Sequence | PBM E-score
ATTATCTC | -0.0303
ATACTGGC | -0.126
GAATTCTC | 0.117
AGAGCCCA | -0.159
GATCCACC | -0.109
AACGTGGT | 0.0693
GGCTGGTA | -0.11
CCATCGGG | -0.00141
AGGTGCAG | -0.259
AGTTGTGC | 0.165
CCGATTCC | -0.122
AGTCTATG | -0.238
ATCAAGCA | 0.0935
TATGACGA | 0.0722
CTGCGGTC | -0.133
CCAGTATA | 0.0398
CCTTAAAA | -0.0827
ATCCATAG | -0.148
GAAAGCCC | 0.152
ATGAAGAA | -0.0689
GCTCATAC | 0.18
TAGCAGCA | -0.246
CCGACGCG | 0.16
ACATGCTC | -0.0815
ATATAAGC | 0.0337

Sequence | PBM E-score
TAATGGGA | -0.294
CCTCCAAC | -0.201
ACGATATA | 0.284
CACAGAAG | -0.291
TCATCCGA | 0.206
CACGAAAC | 0.0525
GGCAAAAC | -0.152
CCGTGCCA | -0.235
GCGACCTA | 0.129
AGGACAAC | 0.088
CCTAAGCG | 0.313
GCTGGTGA | -0.0314
GCAATACC | 0.0211
GGAAAGAC | -0.169
AGTCCAAG | -0.187
TCTATTAA | 0.0192
ATAAAAGG | -0.135
GAAATTTA | 0.232
CAACAGTG | -0.21
ACACCCCA | -0.0833
ACTATGAG | -0.218
CGATTGAG | 0.132
GAATTATA | 0.115
CTACTACA | -0.0926
ACGACTAC | 0.324

Sequence | PBM E-score
GCTGTGAC | 0.111
TCTGTTCA | -0.103
CTATAGGA | -0.106
ATCCTCCA | -0.106
CGACGACA | 0.173
AGGAGTCA | -0.0653
ACCACGGC | -0.181
CGTTCGAG | 0.27
GGAAGAAC | 0.0221
AATGTCGA | -0.106
GACTTATA | 0.248
GCATTGTA | -0.16
ATCTCGGA | 0.132
AGTGTCGA | 0.103
CAATTGTC | -0.0538
ACACTACG | 0.0827
ACGTGGCA | -0.117
CCGCCTCG | 0.208
ACCCACGG | -0.159
AGGTTGTA | 0.127
CGGGCTTC | -0.203
ACAGGAAC | 0.0706
